Measurements from PubChem BioAssay AID1794842 (National Center for Advancing Translational Sciences (NCATS), 2023).
The campaign covered roughly 2,800 compounds. Fewer than 10 were called active. Calls follow the shape of the dose curve; as a rule, active = well fitted curve in the direction sought with a large enough effect; inconclusive = small, poorly fitted or top-dose-only effect, or another doubt; inactive = no such curve, though single readings can be large or run the other way. The list shows a part of the results.
Also: % of control where 0% means no effect.

These molecules were tested against Metallo-beta-lactamase type 2 (Klebsiella pneumoniae) (UniProt C7C422) (assay: qHTS to identify inhibitors of the New Delhi Metallo-beta-lactamase (NDM): Meropenem screen against the machine-based learning selections.). Conditions: Purified NDM-1, meropenem hydrolysis, absorbance 300 nm; at 38.4 µM (top of the series) unless noted.
Sequence of UniProt C7C422 (C7C422 whole entry, looked up): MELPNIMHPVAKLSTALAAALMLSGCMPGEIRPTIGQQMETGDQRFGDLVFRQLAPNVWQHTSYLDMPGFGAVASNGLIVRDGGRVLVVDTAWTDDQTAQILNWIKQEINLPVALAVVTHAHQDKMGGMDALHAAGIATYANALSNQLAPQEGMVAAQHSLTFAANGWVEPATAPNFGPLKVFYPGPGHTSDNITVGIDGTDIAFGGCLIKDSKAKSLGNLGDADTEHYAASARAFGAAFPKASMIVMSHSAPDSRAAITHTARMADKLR
Source text: Assay Submitter (PI): James Inglese Ph.D., Patricia Dranchak Ph.D., Mahesh Aitha Ph.D. Assay Development and Screening Technology Laboratory (ADST) National Center for Advancing Translational Sciences (NCATS), Rockville, MD National Institute of Health (NIH), Bethesda, Maryland The metallo-beta-lactamases (MBL) are a main antibiotic resistance mechanism evolved by bacteria. There is an urgent clinical need for MBL inhibitors to mitigate this growing threat. To support a machine-based learning study, qHTS has been used to experimentally test inhibitors identified by prediction tools.
PROTOCOL TABLE (as described by Inglese et al., 2007) SEQUENCE No. (e.g., 1, 2, 3, etc.); […] (e.g., enzyme, Incubation, Reagent, etc.); VALUE; DESCRIPTION Primary Screen 1; NDM-1; 4 uL of 3 nM enzyme [2 nM final] in 50 mM HEPES (pH 7.0), 1 uM […], 0.01% Tween20; Use BioRaptr to dispense into two sets of Aurora black, clear bottom high base 1536-well plates 2; Compounds; 23 nL; Use Pin Tool (Wako) to transfer DMSO control and library compounds in DMSO 3; Incubate; >30 min 4a; Reagent; 2 uL of 50 uM nitrocefin [16.7 uM final] to one set of assay plates 4b; Reagent; 2 uL of 150 uM meropenem [50 uM final] to second set of assay plates 5a; Incubate; 15 min 5b; Incubate; 30 min 6a; Detector; Absorbance at 485 nm (bandwidth = 5 nm, 25 flashes/well) on Tecan Infinity 6b; Detector; Absorbance at 300 nm (bandwidth = 5 nm, 25 flashes/well) on Tecan Infinity NOTES (numbers refer to sequence above) 1; Column 1 of each plate received assay buffer without enzyme and columns 2-48 received enzyme for a final assay concentration of 2 nM. 2; Control plate contained DMSO in columns 1, 2, 3, and 4. 3; Compound interaction with enzyme. 4; Nitrocefin and meropenem substrates were prepared in the same assay buffer as step 1 for a final assay concentration of 16.7 uM and 50 uM, respectively, and added to all wells across respective sets of assay plates. 5; Default reader settings were applied for absorbance read at 485 nm (nitrocefin) or 300 nm (meropenem), bandwidth = 5 nm, 25 flashes/well. References: Inglese J, Shamu CE, Guy RK. 2007. Reporting data from high-throughput screening of small-molecule libraries. Nat Chem Biol. doi:10.1038/nchembio0807-438 Yasgar A, Shinn P, Jadhav A, Auld D, Michael S, Zheng W, Austin CP, Inglese J, Simeonov A. 2008. Compound Management for Quantitative High-Throughput Screening. J Lab Autom 13:79 - 89. doi:10.1016/j.jala.2007.12.004
Cc1nc(N2CCCCC2)ncc1C(=O)NC1CCOC2(CCOCC2)C1 (centres undefined) was tested, and the activity change, negative = inhibition was inactive: -3.14%. With CN1C[C@H](C(=O)Nc2ccccc2)C[C@H]1c1cccc(C(F)(F)F)c1 the activity change, negative = inhibition was inactive: -1.89% [at 57.5 µM]. For Cc1ccc(-c2nc(CNC(=O)C3(N)CCC3)[nH]c2-c2ccccn2)cc1, the activity change, negative = inhibition was inactive: 57.8%. With O=C(NC[C@H]1OC[C@@H](N(Cc2ccccc2F)Cc2ccccc2F)[C@@H]1O)c1ccccc1 the activity change, negative = inhibition was inactive: -0.556%. For CNC(=O)[C@@H]1C[C@H](n2cc(CNC(=O)Nc3ccc(C)c(Cl)c3)nn2)CN1, the activity change, negative = inhibition was inactive: 33.6%. For O=C(Cc1c[nH]c2ncc(-c3cccnc3)cc12)Nc1ccc(C(F)(F)F)cc1, the activity change, negative = inhibition was inactive: 8.26% [at 57.5 µM]. In the case of O=C(NCCc1ccccn1)c1ccnc(-c2nnc3ccc(Nc4ccccc4)nn23)c1, the activity change, negative = inhibition is reported as inactive: -0.362% [at 57.5 µM]. With COC(=O)[C@H](NC(=O)[C@@H]1C[C@@H](NC(=O)Nc2cccc(F)c2)CCN1C(=O)CCC(=O)O)C(C)C the activity change, negative = inhibition was inactive: -2.12%. For COc1ccc(CNC(=O)[C@H]2O[C@H](CCN3CCN(c4ccccc4OC)CC3)CC[C@@H]2O)cc1, the activity change, negative = inhibition was inactive: -0.324%. OCCC1CCN(c2ccc(-c3nc(CCCc4ccccc4)no3)cn2)CC1 was tested, and the activity change, negative = inhibition was inactive: -0.77%. For CC(C)NC(=O)N1CCC(O)(c2csc(CN3CC[C@@H](O)C3)n2)CC1, the activity change, negative = inhibition was inactive: 0.317% [at 57.5 µM]. CC(C)N1CCOC[C@H]1c1ncc(-c2ccc(F)cc2)[nH]1 was tested, and the activity change, negative = inhibition was inactive: -0.961% [at 76.7 µM]. COC(=O)CO[C@@H]1CO[C@H]2[C@@H]1OC[C@@H]2NC(=O)Nc1cccc(C(F)(F)F)c1 was tested, and the activity change, negative = inhibition was inactive: -0.0488% [at 57.5 µM]. With O=c1c2nc(NCc3ccccc3)ccc2ncn1Cc1ccccn1 the activity change, negative = inhibition was inactive: 18.9% [at 57.5 µM]. Fc1ccc(-c2noc([C@@H]3Cc4nc[nH]c4CN3Cc3ccccc3)n2)cc1Cl was tested, and the activity change, negative = inhibition was inactive: 63.6% [at 57.5 µM]. For CCO[C@H]1C[C@@H](O)C12CCN(C(=O)c1cc(S(N)(=O)=O)ccc1F)CC2, the activity change, negative = inhibition was inactive: -0.14%. Cc1ccc(N2CCN(C(=O)C3CCCN(c4cnc5nccnc5c4)C3)CC2)cc1 (centres undefined) was tested, and the activity change, negative = inhibition was inactive: 4.5%. With Cc1ccc(C2(O)CCN(C(=O)c3cccc(-c4ncc[nH]4)c3)CC2)nc1 the activity change, negative = inhibition was inactive: 0.432%. In the case of Cc1ccccc1Oc1ncccc1CNC(=O)CCn1cnnc1, the activity change, negative = inhibition is reported as inactive: 0.535%. With Cc1cc(CNC(=O)c2cc(-c3ccco3)nc3c(Cl)cccc23)no1 the activity change, negative = inhibition was inactive: 10.2%. With Cc1cnccc1N1CCCN(C(=O)c2cccc(C3CCCNC3)c2)CC1 (centres undefined) the activity change, negative = inhibition was inactive: -1.96%. CC(C)NC(=O)CN1CCN(c2nccc(N3CCC(O)CC3)n2)CC1 was tested, and the activity change, negative = inhibition was inactive: -0.548%. In the case of COc1ccc(C(=O)N2CCCC(c3nccn3CC3CCC3)C2)c(OC)n1 (centres undefined), the activity change, negative = inhibition is reported as inactive: 3.65%. With Cc1cc(C)n(-c2ccc(NC(=O)C3CCN(Cc4nnc(C)o4)CC3)cc2)n1 the activity change, negative = inhibition was inactive: -0.843%. With CC(=O)NC(CO)C(=O)N1CCC(O)(c2ccc(C)cn2)CC1 (centres undefined) the activity change, negative = inhibition was inactive: 3.38%. For CC(=O)NC1(C)CCN(Cc2ccc(-c3cccc4ncccc34)cc2)C1 (centres undefined), the activity change, negative = inhibition was inactive: 22.3% [at 57.5 µM]. CC(C)CN=C1S[C@H]2[C@H]([C@@H](O)[C@H](O)C[C@@H]2C(N)=O)N1Cc1ccc(F)cc1 was tested, and the activity change, negative = inhibition was inactive: 1.98% [at 57.5 µM]. O=C(CC[C@@H]1CNC(=O)[C@@H]2C[C@H](NC(=O)Nc3cccc(Cl)c3)CN12)NCc1cccnc1 was tested, and the activity change, negative = inhibition was inactive: 1.11%. For COCc1cc(C[C@@H]2C[C@H](NC3CCN(C(C)=O)CC3)C2(C)C)no1, the activity change, negative = inhibition was inactive: 2.28% [at 57.5 µM]. CC(C)C[C@@H](NC(=O)C1=C[C@@H](NC(=O)CC(C)(C)C)[C@@H](O)[C@H](O)C1)C(N)=O was tested, and the activity change, negative = inhibition was inactive: -0.512% [at 57.5 µM]. O=C(O)C1(Oc2ccc3ccccc3c2)CCN(Cc2ccsc2)CC1 was tested, and the activity change, negative = inhibition was inactive: -0.232%. Cc1nc2cc(N3CCCC(C(=O)NCCN4CCCCCC4)C3)cnc2nc1C (centres undefined) was tested, and the activity change, negative = inhibition was inactive: 0.257%. With COC(=O)CCNC(=O)C1c2ccccc2C(=O)N(Cc2ccco2)C12CCCCC2 (centres undefined) the activity change, negative = inhibition was inactive: 0.9%. CCCN[C@H]1C[C@@H](Cc2cc(COc3ccccc3)on2)C1(C)C was tested, and the activity change, negative = inhibition was inactive: -1.41% [at 57.5 µM]. Cc1ccc(-c2nc(CNC(=O)[C@@H]3C[C@@H](O)CN3)[nH]c2-c2ccccn2)cc1 was tested, and the activity change, negative = inhibition was inactive: 63%. In the case of CC(=O)Nc1ccc(CN2CCC3(CC2)CN[S+](=O)([O-])c2ccccc2N3)cc1, the activity change, negative = inhibition is reported as inactive: -0.407%. COc1ccc(CNC(=O)C[C@@H]2O[C@H](CNCc3cccc(Cl)c3)[C@@H](O)[C@H]2O)cc1 was tested, and the activity change, negative = inhibition was inactive: 20.3% [at 57.5 µM]. With C[C@@H](NC(=O)Nc1ccccc1)c1onc(-c2ccc(Cl)cc2)c1C(=O)O the activity change, negative = inhibition was inactive: -0.362% [at 57.5 µM]. In the case of O=C(c1ccccc1OCC1CCCN(C(=O)c2n[nH]c3ccccc23)C1)N1CCOCC1 (centres undefined), the activity change, negative = inhibition is reported as inactive: 4.89%. CC(C)c1nc(C2Cc3ccccc3N2C(=O)NCc2ccco2)no1 (centres undefined) was tested, and the activity change, negative = inhibition was inactive: 10%. For O=C(NCCc1csc(-c2ncccn2)n1)C1NCCc2[nH]cnc21 (centres undefined), the activity change, negative = inhibition was inactive: 2.36%. With Cc1noc2c(NC3CCC(O)CC3)cc(-c3ccc(F)cc3)nc12 (centres undefined) the activity change, negative = inhibition was inactive: 11.6% [at 57.5 µM]. Cc1ccc(NC(=O)N2Cc3[nH]cnc3C[C@H]2c2nc(-c3ccc(Cl)cc3)no2)cc1 was tested, and the activity change, negative = inhibition was inactive: 19.6% [at 57.5 µM]. In the case of c1ccc(CCN2CCNc3cc(Nc4ccc(N5CCOCC5)cc4)ncc3C2)cc1, the activity change, negative = inhibition is reported as inactive: 6.63% [at 57.5 µM]. For OCc1cccc(-c2ccc3ncc(Nc4cccc(F)c4)n3n2)c1, the activity change, negative = inhibition was inactive: 35.3% [at 57.5 µM]. COc1ccc(F)c(CN2CCCC(O)(CN(C)Cc3cc(C)on3)C2=O)c1 (centres undefined) was tested, and the activity change, negative = inhibition was inactive: 11.8%. C[C@@]1(O)CCN(C(=O)c2cc(C(F)(F)F)ccc2Cl)C[C@@H]1O was tested, and the activity change, negative = inhibition was inactive: 1.63%. For CN(Cc1ccccc1)Cc1cc(C(=O)N(C)Cc2ccsc2)no1, the activity change, negative = inhibition was inactive: -0.646%. For COc1ccccc1C(O)c1nc(Nc2ccc(C(C)C)cc2)n[nH]1 (centres undefined), the activity change, negative = inhibition was inactive: -1.07% [at 57.5 µM].
